Each structure is given as a SMILES string. The whole screen tested about 48,000 compounds, of which about 550 (1.1%) were called active. About 4% were inconclusive and are not listed. Cut-off read from the data, not from the text of the source: active = potency below about 15 µM; inconclusive = mostly about 16 µM to 33 µM; inactive = weaker than that. This is one part of the list.
Potency is the fitted concentration of half-maximal effect.

Chain of UniProt P04062 (P04062 whole entry, looked up): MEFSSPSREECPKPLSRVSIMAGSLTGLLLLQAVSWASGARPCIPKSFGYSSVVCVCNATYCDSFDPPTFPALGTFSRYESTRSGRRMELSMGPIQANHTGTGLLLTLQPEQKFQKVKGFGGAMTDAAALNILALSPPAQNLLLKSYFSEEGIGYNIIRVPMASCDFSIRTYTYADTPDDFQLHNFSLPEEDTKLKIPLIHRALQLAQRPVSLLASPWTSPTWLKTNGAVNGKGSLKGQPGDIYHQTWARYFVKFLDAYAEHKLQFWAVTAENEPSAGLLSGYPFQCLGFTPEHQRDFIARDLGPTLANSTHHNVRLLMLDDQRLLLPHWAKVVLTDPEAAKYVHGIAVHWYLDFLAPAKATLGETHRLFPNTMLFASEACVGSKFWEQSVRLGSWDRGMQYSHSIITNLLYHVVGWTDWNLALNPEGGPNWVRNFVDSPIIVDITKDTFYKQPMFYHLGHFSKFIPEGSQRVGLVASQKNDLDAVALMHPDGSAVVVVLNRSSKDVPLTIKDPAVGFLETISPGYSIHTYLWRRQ

The target of the assay is Lysosomal acid glucosylceramidase (Homo sapiens) (UniProt P04062). As to the kind of experiment: Glucocerebrosidase.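 Note: the screen sought inhibitors.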 The settings on record: purified enzyme, resorufin glucoside fluorescence (screen aimed at inhibitors), 20 min. The gist of the method:
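Normal human glucocerebrosidase (0.2 nM final) was assayed with resorufin β-D-glucopyranoside (30 uM final) in 50mM citric acid/KH2PO4, 10mM sodium taurocholate, 0.01% tween-20, pH 5.9. Compounds were titrated; fluorescence (Ex 548, Em 600) read after 20 min at RT.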
As to `COc1ccc2[nH]c(=O)c(CN(C(=O)C3CCCO3)c3cccc(C)c3)cc2c1` (stereo not given), the Potency was inactive: > 76.9 µM. With `CCOc1cc2[nH]c(=S)n(CCCN3CCN(C)CC3)c(=O)c2cc1OCC`, the Potency is inactive: > 76.9 µM. As to `CCOC(=O)/C=C1\NC(C)(C)Cc2cc(OC)c(O)cc21`, the Potency was inactive: > 76.9 µM. As to `CCOC(=O)C1CCN(C(=O)COc2cccc(C)c2)CC1`, the Potency was inactive: > 76.9 µM. Turning to `OC1(c2cccc(C(F)(F)F)c2)CCN(c2ccc(-c3ccccc3)nn2)CC1`, the Potency was inactive: > 76.9 µM. To `CCC(C)NC(=O)N[C@@H](CCSC)C(=O)O` (stereo not given in full) belongs inactive: > 76.9 µM; to `CCN(CC)Cc1cc2ccccc2c2c1COC2`, inactive: > 76.9 µM. Then `CCOc1ccc(N2C(=O)CC(SCCN)C2=O)cc1` (stereo not given), with inactive: > 76.9 µM; and `Cc1ccc(-c2noc(CCC(=O)N3CCCc4ccccc43)n2)cc1`, with inactive: > 76.9 µM; and `CCOCCCNC(=O)C1CCN(c2cc(C)nc3c(-c4ccc(OC)c(OC)c4)c(C)nn23)CC1`, with inactive: > 76.9 µM. As for `CCOCCCNc1ncc2c(n1)CC(c1ccc(C)cc1)CC2=O` (stereo not given), the Potency is inactive: > 76.9 µM. Regarding `S=c1nc(C2CCCCC2)[nH][nH]1`, the Potency is inactive: > 76.9 µM.

Consider `C=CCN1C(=O)C(O)(CC(=O)c2ccc(OC)cc2OC)c2cc(Br)ccc21` (stereo not given), for which the Potency is inactive: > 76.9 µM. Then `CCOc1ccccc1NC=C1C(=O)OC(C)(C)OC1=O`, with inactive: > 76.9 µM; and `COc1ccc(NC(=O)C2C(=O)N(C)C3(C)CC2c2ccccc2O3)cc1` (stereo not given), with inactive: > 76.9 µM.

In the case of `Cn1c(=O)c2c(nc(CN3CCC(C(N)=O)CC3)n2CCCc2ccccc2)n(C)c1=O`, the Potency is inactive: > 76.9 µM. Regarding `O=C1CC(C(=O)Nc2ccccc2)C2(CCCC2)O1` (stereo not given), the Potency was inactive: > 76.9 µM. To `O=S(=O)(c1ccc2ccccc2c1)N1CCCOC1` belongs inactive: > 76.9 µM. In the case of `Cc1cc(N2CCN(c3nc4ccccc4s3)CC2)n2ncnc2n1`, the Potency is inactive: > 76.9 µM. To `COc1ccccc1N1CCN(CC(O)COc2ccc(S(=O)(=O)N3CCOCC3)cc2)CC1` (stereo not given) belongs inactive: > 76.9 µM.

On to `Cc1ccc(-n2nc(C(=O)N3CCN(C)CC3)c3c4ccccc4n(C)c3c2=O)cc1`, for which the Potency was inactive: > 76.9 µM. Turning to `CCOc1ccc(NC(=O)CS(=O)CC(=O)NC2CCCc3ccccc32)cc1` (stereo not given), the Potency was inactive: > 76.9 µM. Then `O=C(c1ccco1)N1CCN(CC(O)Cn2c3ccccc3c3ccccc32)CC1` (stereo not given), with inactive: > 76.9 µM. Turning to `Cc1cccc(N2C(N)=NC(N)=NC23CCCCC3)c1`, the Potency was inactive: > 76.9 µM. Take `CNc1nc(C)nc(-n2nc(C)cc2C)n1`: the Potency is inactive: > 76.9 µM. Then `CC(C)(C)OC(=O)N1CCC[C@H]1C(=O)NCC1CCC(C(=O)O)CC1` (stereo not given in full), with inactive: > 76.9 µM. Then `COc1cc(NS(=O)(=O)c2ccc(NC(=O)c3ccc(C)o3)cc2)nc(OC)n1`, with inactive: > 76.9 µM; and `CCc1nc(N)c(C#N)c(-c2ccccc2OC)c1C`, with inactive: > 76.9 µM; and `CCOC(=O)CN1CC23C=CC(O2)C(C(=O)NCc2cccs2)C3C1=O` (stereo not given), with inactive: > 76.9 µM.

On to `CCCS(=O)(=O)N1CCN(Cc2ccncc2)CC1`, for which the Potency is inactive: > 76.9 µM. To `COc1ccc(CNC2CCCCC2C)c(OC)c1` (stereo not given) belongs inactive: > 76.9 µM; to `Cc1ccc(C)c(NC(=O)CSc2nnc(CSc3nc(C)cc(C)n3)n2Cc2ccco2)c1`, inactive: > 76.9 µM; to `CCC(c1nnnn1C1CCCC1)N1CCN(c2ccccc2)CC1` (stereo not given), inactive: > 76.9 µM.

As for `Cc1cc(C(=O)N2CCN(CCc3ccccc3)CC2)no1`, the Potency is inactive: > 76.9 µM. To `CC1CCN(S(=O)(=O)c2cccc(C(=O)Nc3nccs3)c2)CC1` belongs inactive: > 76.9 µM.

With `CC(NC(=O)c1noc2c1CCCC2)c1ccccc1` (stereo not given), the Potency is inactive: > 76.9 µM. Then `C=CCn1c(N2CCCCCC2)nc2c1c(=O)n(C)c(=O)n2C`, with inactive: > 76.9 µM; and `COc1ccc(C2/C(=C(\O)c3ccc(OC)c(Cl)c3)C(=O)C(=O)N2CCN(C)C)cc1` (stereo not given), with inactive: > 76.9 µM. Take `O=C(COC(=O)CCC(=O)c1ccc2c(c1)OCCO2)NCc1ccc2c(c1)OCO2`: the Potency was inactive: > 76.9 µM. As for `CCOc1cc(C2CC(=O)NC3=C2C(=O)C(C(=O)OC)C(C)C3)cc(Cl)c1O` (stereo not given), the Potency is inactive: > 76.9 µM.

Take `Cn1c(=O)c2ncn(CC(=O)Nc3ccc4oc(-c5cccc6ccccc56)nc4c3)c2n(C)c1=O`: the Potency was inactive: > 76.9 µM. `O=C(COc1ccccc1F)NC1CC1`: the Potency is inactive: > 76.9 µM. Take `CC1CN(c2nc3c(c(=O)n(Cc4ccc(Cl)cc4)c(=O)n3C)n2C)CC(C)O1` (stereo not given): the Potency is inactive: > 76.9 µM. To `Cc1ccc2nc(NC(=O)COC(=O)c3ccco3)sc2c1` belongs inactive: > 76.9 µM; to `CCOC(=O)c1oc2ccc(Br)cc2c1CSc1nnc(C)s1`, inactive: > 76.9 µM.

With `COC(=O)c1c(C#N)c(N)nc2c1CCC2`, the Potency is inactive: > 76.9 µM. Regarding `Cc1cc2nc(NC3=NCN(CCCN4CCOCC4)CN3)nc(C)c2cc1C`, the Potency was inactive: > 76.9 µM. With `O=C(NCC1CCCO1)C1CCN(c2ccc(S(=O)(=O)N3CCCC3)cc2)CC1` (stereo not given), the Potency is inactive: > 76.9 µM.

In the case of `O=C(CCn1c(=O)sc2ccccc21)NCc1cccs1`, the Potency was inactive: > 76.9 µM.

Regarding `CCn1ncc(CN2CCN(C(=O)Nc3ccccc3C(=O)OC)CC2)c1C`, the Potency is inactive: > 76.9 µM. To `Cc1ccc(C)c(-n2c(SCC(=O)N3CCCC3)nnc2-c2ccccn2)c1` belongs inactive: > 76.9 µM.

Take `Cc1ccccc1-c1nc(CN2CCC(C(=O)NCCCN3CCCC3)CC2)c(C)o1`: the Potency is inactive: > 76.9 µM. On to `FC(F)(F)c1cc(-c2ccccc2)nc(N2CCCCCC2)n1`, for which the Potency was inactive: > 76.9 µM. `C=CCn1c(SCC(=O)Nc2cc(C)c(Cl)cc2OC)nnc1-c1ccco1`: the Potency is inactive: > 76.9 µM. To `COC1(OC)N=C(N)C2(C#N)C(c3cccc(Oc4ccccc4)c3)C12C#N` (stereo not given) belongs inactive: > 76.9 µM.

Turning to `O=C(NCC1CCCO1)Nc1cccc(Cl)c1` (stereo not given), the Potency is inactive: > 76.9 µM. Then `CCOc1ccc(OCC)c(NC(=O)CN2CCN(c3cccc(C)c3)CC2)c1`, with inactive: > 76.9 µM; and `Cc1nc2c(C(=O)N3CCN(c4ccccn4)CC3)cnn2c(C)c1Cc1cccc(Cl)c1`, with inactive: > 76.9 µM; and `O=c1oc2ccccc2n1Cn1c(=O)oc2ccccc21`, with inactive: > 76.9 µM. To `CCC(C)C(NCc1cccc(C)c1)C(=O)O` (stereo not given) belongs inactive: > 76.9 µM; to `COc1ccc(C2C(C(N)=O)=C(C)Nc3ncnn32)cc1` (stereo not given), inactive: > 76.9 µM; to `CCOc1ccc(NC2=NCCC(=O)N2Cc2cccs2)cc1`, inactive: > 76.9 µM. Then `CC(=O)NCCn1c(SCC#N)nc2ccccc2c1=O`, with inactive: > 76.9 µM; and `CCN(CC)CCCNc1oc(-c2ccc(OC)c(OC)c2)nc1C#N`, with inactive: > 76.9 µM. For the compound `O=C1NC(=O)[C@@H]2C3c4ccccc4C=CN3[C@H](C(=O)c3cccs3)[C@H]12` (stereo not given in full), the Potency is inactive: > 76.9 µM. Then `CC(c1ccccc1F)n1cc(C(=O)NCCc2ccco2)nn1` (stereo not given), with inactive: > 76.9 µM; and `CCOC(=O)c1c(-c2ccc(C)o2)csc1NC(=O)CSc1nncs1`, with inactive: > 76.9 µM; and `CCN(CC(=O)Nc1c(C(=O)OC)[nH]c2ccc(C)cc12)c1ccc2c(c1)OCO2`, with inactive: > 76.9 µM. Turning to `CCOC(=O)C(C)n1cnc2c(cnn2-c2ccc(Cl)cc2)c1=O` (stereo not given), the Potency is inactive: > 76.9 µM. For `Clc1ccc(OCc2nn3c(C4CCCCC4)nnc3s2)cc1`, the Potency was inactive: > 76.9 µM. For the compound `CCOC(=O)N1CCC(NC(=O)C2CCN(S(=O)(=O)N3CCC(C)CC3)CC2)CC1`, the Potency was inactive: > 76.9 µM. To `O=C(OCCN1C(=O)c2ccccc2C1=O)c1cc(S(=O)(=O)N2CCOCC2)ccc1F` belongs inactive: > 76.9 µM; to `CC1(C)CC(=O)c2cc(OCC(=O)NCCCN3CCN(c4ccc(F)cc4)CC3)ccc2O1`, inactive: > 76.9 µM; to `COc1cc(C2C(C(C)=O)=C(O)C(=O)N2CCc2ccc(OC)c(OC)c2)ccc1O` (stereo not given), inactive: > 76.9 µM. Then `CCNC(=O)c1nc[nH]c1C(=O)NCC`, with inactive: > 76.9 µM; and `CCc1nc2sc3c(c2c(=O)n1N)CCC3`, with inactive: > 76.9 µM. For `Cc1cccc2cc(C#N)c(N3CCCC3)nc12`, the Potency was inactive: > 76.9 µM. Then `CC(C)NC(=O)C1CCN(Cc2cnn(-c3ccccc3)c2-n2cccc2)CC1`, with inactive: > 76.9 µM; and `Cc1cc2ncn(S(=O)(=O)N3CCOCC3)c2cc1C`, with inactive: > 76.9 µM; and `CS(=O)(=O)N(CC(=O)NCc1ccccn1)c1ccc2c(c1)OCCO2`, with inactive: > 76.9 µM. On to `CCCC(=O)N1CCN(S(=O)(=O)c2cc(Cl)ccc2OC)CC1`, for which the Potency is inactive: > 76.9 µM. As to `CCN(CC)c1nc2n(c(=S)n1)CCS2`, the Potency is inactive: > 76.9 µM. Then `O=C(CN1CCC(C(=O)c2ccc3c(c2)OCCO3)CC1)NC1CCCC1`, with inactive: > 76.9 µM; and `Cc1ccccc1Nc1nn2c(=O)c3ccccc3nc2s1`, with inactive: > 76.9 µM; and `Cc1ccc(-n2c(SCc3ccc(C#N)cc3)nnc2-c2ccccn2)cc1`, with inactive: > 76.9 µM. To `O=C(NC1CCCCC1NC(=O)c1ccco1)c1ccco1` (stereo not given) belongs inactive: > 76.9 µM. In the case of `NC(=O)C1(N2CCCCC2)CCN(CC(=O)Nc2ccccc2-c2ccccc2)CC1`, the Potency is inactive: > 76.9 µM. Regarding `CCOC(=O)CC(=O)CSc1nc2sc(C)cc2c(=O)n1Cc1ccco1`, the Potency is inactive: > 76.9 µM. On to `COc1ccc(CN(C)CCc2ccccn2)cc1OC`, for which the Potency was inactive: > 76.9 µM. On to `CC(C)CNC(=O)C1C2C=CC(C2)C1C(=O)O` (stereo not given), for which the Potency was inactive: > 76.9 µM.

The record behind these values is PubChem BioAssay AID360 (National Center for Advancing Translational Sciences (NCATS), 2006).
